Test results from PubChem BioAssay AID1346428 (National Center for Advancing Translational Sciences (NCATS), 2018).
“And” between values parts separate entries of the source, which are not always exact repeats. Identical values can stand only once. In all, about 48,000 compounds went through this assay and about 1,200 (2.5%) were called active. Roughly 2% stayed inconclusive and do not appear here.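 The calls were made as follows: active = activation of at least 60% and not above a set upper limit (about 1 call in 100 departs from these limits); inconclusive = activation of 40% to 60%, or above that upper limit; inactive = activation under 40%.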 Some of the results follow.

Biological target: Probable G-protein coupled receptor 32 (Homo sapiens) (UniProt O75388)
Assay: qHTS for Agonists of Human Resolvin D1 Receptor DRV1; also: 0% is about no effect
Settings: CHO-K1 GPR32 beta-arrestin PathHunter luminescence, 90 min; at 76.9 µM; active compounds read high; zero percent set by DMSO-only wells
Outline: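 CHO-K1 cells stably expressing ProLink-tagged GPR32 and Enzyme Activator-tagged beta-arrestin were seeded at 2,500 cells/well overnight, exposed to compounds for 90 min at 37 °C, then read by beta-Gal complementation chemiluminescence after 1 h detection reagent.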

Sequence of UniProt O75388 (O75388 whole entry, looked up): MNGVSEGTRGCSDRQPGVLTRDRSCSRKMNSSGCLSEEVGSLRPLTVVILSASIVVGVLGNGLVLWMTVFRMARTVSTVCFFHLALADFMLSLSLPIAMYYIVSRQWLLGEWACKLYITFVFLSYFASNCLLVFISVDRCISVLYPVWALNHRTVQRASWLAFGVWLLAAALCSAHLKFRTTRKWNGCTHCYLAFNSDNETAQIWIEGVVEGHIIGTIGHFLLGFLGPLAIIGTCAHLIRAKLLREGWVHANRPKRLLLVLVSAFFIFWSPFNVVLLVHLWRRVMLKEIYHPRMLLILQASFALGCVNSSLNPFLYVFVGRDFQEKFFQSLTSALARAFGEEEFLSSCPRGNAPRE

Question: With `CCOc1ccc(CC(=O)Nc2ccc3c(c2)N(C)C(=O)c2ccccc2S3)cc1OCC` as the molecule, how does the activation read?
Answer: Its activation is inactive: -17%.

Question: Which activation does the source give for `CCCCN(C)CCCNC(=O)c1cc(=O)[nH]c2ccc(S(=O)(=O)N3CCCCC3)cc12` here?
Answer: Its activation is inactive: -1.76%.

Question: With `CC(=O)N1c2ccc(S(=O)(=O)NCC3CCC(C(=O)Nc4ccccc4C)CC3)cc2CC1C` (centres undefined) as the molecule, how does the activation read?
Answer: Its activation is inactive: -4.94%.

Question: `O=C(Nc1ccc(OC(F)(F)F)cc1)C1CCCN(S(=O)(=O)c2cccc3nonc23)C1` (centres undefined) was tested. Which activation did it give?
Answer: Its activation is inactive: 33.7%.

Question: How did the activation turn out when `Nc1ncnc2c1nc(Br)n2C1OC2COP(=O)(O)O[C@@H]2C1O` (some centres undefined) was run?
Answer: Its activation is inactive: 6.98%.

Question: Which activation does the source give for `COCCCNC(=O)CN1C(=O)COc2ccc(S(=O)(=O)N3CCCCCC3)cc21` here?
Answer: The activation was inactive: 5.28%.

Question: With `COc1ccc2c(c1)CCc1sc(NC(=O)c3ccc(Cl)cc3)nc1-2` as the molecule, how does the activation read?
Answer: Its activation is inactive: -29.7%.

Question: For `CCC1=Nc2cc(C(=O)NC(C)c3ccccc3)ccc2Sc2ccc(Cl)cc21` (centres undefined), which activation is on record?
Answer: The activation was inactive: 2.79%.

Question: For `Ic1ccc(N2CCN(Cc3c[nH]c4ncccc34)CC2)cc1`, which activation is on record?
Answer: The activation was active: 76.1%.

Question: `Cc1cccc(-n2cc(-c3ccccc3)c3c(NC(C)C)ncnc32)c1` was tested. Which activation did it give?
Answer: The activation was inactive: -12.8%.

Question: For `CC1CCN(S(=O)(=O)c2cn(CC(=O)Nc3ccc(F)c(Cl)c3)c(=O)c3ccccc23)CC1`, which activation is on record?
Answer: The activation was inactive: 35.5%.

Question: With `Cc1ccc(NC(=O)CCc2c(C)nc3c(-c4ccccc4)c(C)nn3c2C)c(C)c1` as the molecule, how does the activation read?
Answer: The activation was inactive: 11.4%.

Question: How did the activation turn out when `COc1ccc(-n2c(=O)c3ccccc3n(CC(=O)NCCc3ccccc3)c2=O)c(OC)c1` was run?
Answer: The activation was inactive: -8.45%.

Question: `O=C(CSc1nccn1-c1cccc(Cl)c1)Nc1cccc(C(F)(F)F)c1` was tested. Which activation did it give?
Answer: Its activation is inactive: 6.71%.

Question: With `CN(Cc1ccccc1)C(=O)CCS(=O)(=O)c1cc(Br)cc2c1N(C(=O)C1CC1)CC2` as the molecule, how does the activation read?
Answer: The activation was inactive: -5.45%.

Question: How did the activation turn out when `Cc1ccc(NC(=O)CSc2nc(-c3ccc(F)cc3)nc3c2Cc2c(CO)cnc(C)c2O3)cc1C` was run?
Answer: Its activation is inactive: 0.397%.

Question: For `COC(=O)c1ccccc1NC(=O)CN(c1ccccc1OC)S(C)(=O)=O`, which activation is on record?
Answer: The activation was inactive: -7.55%.

Question: With `CCn1c(=NC(=O)c2ccc(S(=O)(=O)N3CCCCC3)cc2)sc2cccc(OC)c21` as the molecule, how does the activation read?
Answer: Its activation is inactive: 19.5%.

Question: Which activation does the source give for `CCc1nn2c(-c3ccccc3OC)ccnc2c1-c1ccc(F)cc1` here?
Answer: The activation was inactive: 0.127%.

Question: Which activation does the source give for `CCOC(=O)c1cccc(NC(=O)CC(c2cc(OC)c(OC)c(OC)c2)N2Cc3ccccc3C2=O)c1` (centres undefined) here?
Answer: Its activation is inactive: -7.91%.

Question: Which activation does the source give for `CCOC(=O)C1CCN(c2c(C(=O)c3ccc(OCC)cc3)cnc3ccc(OC)cc23)CC1` here?
Answer: The activation was inactive: -44.6%.

Question: For `Oc1c(C(c2ccccc2F)N2CCOCC2)sc2nc(-c3ccco3)nn12` (centres undefined), which activation is on record?
Answer: The activation was inactive: -12.5%.

Question: `COc1ccc(CCNc2nc(-c3ccc(C)cc3)cc(C(F)F)n2)cc1OC` was tested. Which activation did it give?
Answer: The activation was inactive: -2.56%.

Question: How did the activation turn out when `COC(=O)c1ccc(NC(=O)CCc2c(C)nc3c(c(C)nn3-c3ccc(C)cc3)c2C)cc1` was run?
Answer: Its activation is inactive: -18.2%.

Question: Which activation does the source give for `CC(NC(=O)CSc1n[nH]c(-c2ccccc2Cl)n1)c1nc2ccccc2n1C` (centres undefined) here?
Answer: Its activation is inactive: 0.48%.

Question: How did the activation turn out when `Cc1c(Cl)cccc1NC(=O)CC(c1cccs1)N1Cc2ccccc2C1=O` (centres undefined) was run?
Answer: The activation was inactive: -3.49%.

Question: `CCN(c1ccccc1)S(=O)(=O)c1ccc2[nH]cc(C(=O)NC3CCCCC3)c(=O)c2c1` was tested. Which activation did it give?
Answer: The activation was inactive: 29.5%.

Question: How did the activation turn out when `Cc1nc2c(C(=O)NCc3ccccc3Cl)c[nH]n2c(=O)c1Cc1cccc(Cl)c1` was run?
Answer: Its activation is inactive: 22%.

Question: With `COc1c(C)cc(S(=O)(=O)Nc2cccc(-c3ccc(N4CCOCC4)nn3)c2)c(C)c1C` as the molecule, how does the activation read?
Answer: Its activation is inactive: -0.251%.

Question: Which activation does the source give for `CCOc1ccc(NC(=O)CN2CCN(Cc3ccccc3)S2(=O)=O)cc1` here?
Answer: Its activation is inactive: -1.55%.

Question: How did the activation turn out when `CCCCN(C)CCCNC(=O)CN1C(=O)COc2ccc(S(=O)(=O)N3CCC(C)CC3)cc21` was run?
Answer: The activation was inactive: -0.101%.

Question: For `CCOC(=O)N1CCc2c(sc(NCc3sccc3C)c2C(=O)Nc2cc(OC)ccc2OC)C1`, which activation is on record?
Answer: Its activation is inactive: -8.25%.

Question: For `COc1cccc(NC(=O)CSc2cc(=O)n(C)c3ccc(Cl)cc23)c1`, which activation is on record?
Answer: Its activation is active: 66.2%.

Question: Which activation does the source give for `Cc1cc(=O)[nH]c2nnc(SCc3ccc(Cl)c(Cl)c3)n12` here?
Answer: The activation was inactive: 1.28%.

Question: Which activation does the source give for `CCOc1ccccc1-n1c(C)nc2cc(C(=O)O)ccc21` here?
Answer: The activation was inactive: 6.65%.

Question: Which activation does the source give for `CCCCNC(=O)C1CCN(C(=O)N2CC(C)Oc3ccc(Cl)cc32)CC1` (centres undefined) here?
Answer: Its activation is inactive: 7.75%.

Question: How did the activation turn out when `CCOc1ccccc1NC(=O)CN1C(=O)COc2ccc(S(=O)(=O)N3CCCCCC3)cc21` was run?
Answer: Its activation is inactive: -14.7%.

Question: For `COc1ccc(NC(=O)c2c(C(=O)Nc3ccccc3)sc3nc(C)cc(=O)n23)cc1`, which activation is on record?
Answer: Its activation is inactive: -24%.

Question: Which activation does the source give for `CCOc1ccccc1NC(=O)Cc1coc2c(C)c(C)ccc12` here?
Answer: The activation was inactive: -6.57%.

Question: Which activation does the source give for `Cc1cccc(C(=O)N2CCc3cc(CNC(=O)c4ccnn4C)ccc32)c1` here?
Answer: The activation was inactive: -6.96%.

Question: `Cc1ccc(CCNC(=O)C(CC(C)C)NS(=O)(=O)c2ccc3c(c2)oc(=O)n3C)cc1` (centres undefined) was tested. Which activation did it give?
Answer: The activation was inactive: -2.46%.

Question: For `Cn1cnc(S(=O)(=O)N2CCCC(C(=O)NCc3ccccc3Cl)C2)c1` (centres undefined), which activation is on record?
Answer: Its activation is inactive: -9.35%.

Question: With `N#C/C(=C\c1ccc(F)cc1)C(=O)NCC1CCCO1` (centres undefined) as the molecule, how does the activation read?
Answer: Its activation is inactive: 16.5%.

Question: With `O=c1cc(-c2ccccc2)nc(SCc2nc(-c3ccc(C(F)(F)F)cc3)no2)[nH]1` as the molecule, how does the activation read?
Answer: Its activation is inactive: -2.19%.

Question: Which activation does the source give for `COc1ccc(CNC(=O)CCc2cn(Cc3cc(C)ccc3C)c3ccccc23)cc1OC` here?
Answer: Its activation is inactive: -35.8%.

Question: With `CC(C)(C)c1ccc(-c2nc3cc(NC(=O)c4cc5ccccc5o4)ccc3o2)cc1` as the molecule, how does the activation read?
Answer: Its activation is inactive: -0.403%.

Question: For `CCCOc1ccc(-c2nc3ccccc3c(=O)o2)cc1`, which activation is on record?
Answer: Its activation is inactive: 41.9%.

Question: For `CCc1cccc(N(C)C(N)=Nc2cccc3ccccc23)c1`, which activation is on record?
Answer: Its activation is inactive: 26.6% and inactive: 12.9%.

Question: `COc1ccc(NC(=O)NC2COc3ccccc3C2)c(OC)c1` (centres undefined) was tested. Which activation did it give?
Answer: The activation was inactive: -19.7%.

Question: With `Cc1c(C(=O)Nc2nc(-c3ccc(F)cc3)ns2)oc2ccc(Br)cc12` as the molecule, how does the activation read?
Answer: The activation was inactive: -1.59%.

Question: For `CC(=O)NS(=O)(=O)c1ccc(N)cc1`, which activation is on record?
Answer: The activation was inactive: -14.6%.

Question: How did the activation turn out when `CC(C)c1ccc(NC(=O)C2CCN(S(=O)(=O)c3cccc4nsnc34)CC2)cc1` was run?
Answer: The activation was inactive: 30.9%.

Question: For `O=C(Cn1ccn(-c2cccc(Cl)c2)c(=O)c1=O)NCCc1ccccc1`, which activation is on record?
Answer: Its activation is inactive: -8.84%.

Question: How did the activation turn out when `COc1ccc2c(c1)cc(CNc1ccc(OC)c(OC)c1)c(=O)n2CC(=O)Nc1ccc(F)cc1` was run?
Answer: Its activation is inactive: -55.1%.
